{"source": "PubChem BioAssay AID1745845", "about": "(National Center for Advancing Translational Sciences (NCATS), 2022)", "note": "In all, about 360,000 compounds went through this assay and about 2,600 (0.72%) were called active. This list was built around the results that the source calls inconclusive (neither active nor inactive); the mix of calls is not that of the screen. Calls come from the whole dose curve; as a rule, active = well fitted inhibition curve with a large enough effect; inconclusive = small, poorly fitted or top-dose-only effect; inactive = no such curve, though single readings can be large or run the other way. Where the call is inconclusive, the potency comes from a doubtful curve fit. % is set by controls: 0 for no effect and ±100 for the full control effect; potency is the fitted concentration of half-maximal effect; tags give direction and shape of the fitted curve."}
{"test": "Primary qHTS for Inhibitors of ATXN expression; note: nearly all actives have a fitted effect of over 55% in size", "conditions": "HEK-293 ATXN2-luciferase reporter, luminescence, 24 h; activity change, negative = inhibition: at 57 µM (top of the series)", "method_in_brief": "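qHTS (up to 57 uM final) was run with 24 h compound exposure of reporter cells at 37 °C. Each well was multiplexed: SteadyGlo luminescence measured ATXN2-luciferase expression after a fluorogenic Gly-Phe-AFC viability readout (25 uM final).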"}
{"smiles": "Cc1nn2c(NCc3ccccn3)c3c(nc2c1-c1ccccc1)CCC3", "Potency": "inconclusive: 35.5 µM [inhibitor, partial curve, poor fit]"}
{"smiles": "NS(=O)(=O)c1ccc(NC(=S)NC(=O)/C=C/c2cccs2)cc1", "activity change, negative = inhibition": "inactive: 4.12%"}
{"smiles": "COc1ccc(-c2csc(NC(C)c3nc4cc(C(F)(F)F)ccc4n3CCOCCO)n2)cc1", "note": "(stereo unspecified)", "Potency": "inconclusive: 28.2 µM [inhibitor, single point]"}
{"smiles": "COc1cc(NC(=O)c2ccc(S(=O)(=O)N(C)c3ccccc3OC)cc2)cc(OC)c1", "activity change, negative = inhibition": "inactive: -18%"}
{"smiles": "Cc1c(N=NC2=C(O)CC(C)(C)CC2=O)c(=O)n(-c2ccccc2)n1C", "activity change, negative = inhibition": "inactive: -7.28%"}
{"smiles": "CCCC1SCC(C)(C)NC1=O", "note": "(stereo unspecified)", "activity change, negative = inhibition": "inactive: -3.35%"}
{"smiles": "COc1ccccc1C1c2ccc3ccccc3c2Oc2ncn(CCN(C)C)c(=N)c21", "note": "(stereo unspecified)", "Potency": "active: 25.1 µM"}
{"smiles": "CN1/C(=C\\C=C2/C(=O)Oc3ccccc3C2=O)C(C)(C)c2ccccc21", "activity change, negative = inhibition": "inactive: 17%"}
{"smiles": "Clc1ccc2nc(-c3ccccn3)c(Nc3ccc4c(c3)OCO4)n2c1", "Potency": "inconclusive: 29.9 µM [inhibitor, partial curve, poor fit]"}
{"smiles": "CCOC(=O)c1c(CC(C)C)csc1NC(=O)COC(=O)C1=NNC(=O)CC1", "activity change, negative = inhibition": "inactive: -2.52%"}
{"smiles": "O=C1/C(=C/c2cccnc2)Sc2ccccc21", "activity change, negative = inhibition": "inactive: 15.2%"}
{"smiles": "O=S(=O)(NCCc1csc(-c2ccc(F)cc2)n1)c1ccc(Cl)cc1", "Potency": "active: 15.8 µM"}
{"smiles": "Cc1ncc(CO)c(/C=N/NC(=O)c2cccc(S(=O)(=O)N3CCCC3)c2)c1O", "Potency": "inconclusive: 22.4 µM [inhibitor, single point]"}
{"smiles": "Cn1cc(C(=O)NCc2cccs2)c(=O)c2cc(S(=O)(=O)N3CCCC3)ccc21", "Potency": "inconclusive: 39.8 µM [inhibitor, partial curve, poor fit]"}
{"smiles": "O=C1NC(=O)[C@@H](c2cn3c4c(cccc24)CCC3)[C@H]1c1c[nH]c2ccccc12", "activity change, negative = inhibition": "inactive: -21.1%"}
{"smiles": "CCc1ncc(CN2CCC(C(=O)Nc3cccc(-c4cscn4)c3)CC2)cn1", "activity change, negative = inhibition": "inactive: -0.166%"}
{"smiles": "CC(Nc1ccccc1N1CCCCC1)C(=O)N1CCc2ccccc21", "note": "(stereo unspecified)", "activity change, negative = inhibition": "inactive: -20.5%"}
{"smiles": "COc1cc(CNC(=O)Nc2nc(C(N)Cc3ccc(Cl)cc3)cs2)cc(OC)c1OC", "note": "(stereo unspecified)", "Potency": "inconclusive: 39.8 µM [inhibitor, single point]"}
{"smiles": "Cc1ccc(-n2nnnc2Sc2ccc(S(=O)(=O)NCCN(C)C)cc2[N+](=O)[O-])cc1", "Potency": "inconclusive: 31.6 µM [inhibitor, single point]"}
{"smiles": "Cc1ccc(Cl)cc1NC(=O)c1ccc(-c2nc(CSc3ccccc3)c(C)o2)cc1", "Potency": "inconclusive: 8.91 µM [inhibitor, partial curve, poor fit]"}
{"smiles": "CC1(C)CC(=O)C2=C(C1)N=C1c3ccccc3C(=O)C1C2c1ccc(Cl)cc1", "note": "(stereo unspecified)", "Potency": "inconclusive: 31.6 µM [inhibitor, partial curve, poor fit]"}
{"smiles": "O=C(OCc1ccc([N+](=O)[O-])cc1)C1CCN(S(=O)(=O)c2ccccc2)CC1", "activity change, negative = inhibition": "inactive: -17.6%"}
{"smiles": "CCOC(=O)c1ccc(NC(=O)CC2C(=O)N(c3ccccc3)C(=O)N2Cc2cccs2)cc1", "note": "(stereo unspecified)", "activity change, negative = inhibition": "inactive: -1.7%"}
{"smiles": "Cc1ccc(N=Nc2ccc(O)c3ncccc23)cc1", "Potency": "active: 12.6 µM"}
{"smiles": "CN(C)c1ccc(/C=N/N=C(N)N)cc1[N+](=O)[O-]", "Potency": "inconclusive: 1.19 µM [inhibitor, full curve]"}
{"smiles": "CC(=O)OCCCNc1cc(Sc2ccc(Cl)cc2)c2nonc2c1[N+](=O)[O-]", "Potency": "inconclusive: 31.6 µM [inhibitor, single point]"}
{"smiles": "Cc1ccc(C)c(N(C)C(=O)C2CCN(S(=O)(=O)c3cccc4nsnc34)CC2)c1", "Potency": "inconclusive: 28.2 µM [inhibitor, single point]"}
{"smiles": "O=C(CCl)N1CCN(S(=O)(=O)c2ccc3ccccc3c2)CC1", "Potency": "inconclusive: 39.8 µM [inhibitor, single point]"}
{"smiles": "CCOC(=O)[C@H]1[C@H]2COc3ccc(C)cc3[C@@H]2N2C(=O)c3ccc(C)cc3NC(=O)[C@@]12C", "activity change, negative = inhibition": "inactive: -10.5%"}
{"smiles": "CC1CCCN(c2c3c(nc4ccccc24)CCCC3)C1", "note": "(stereo unspecified)", "Potency": "inconclusive: 15.8 µM [inhibitor, partial curve, poor fit]"}
{"smiles": "CC(C)=CCN1CCN(Cc2cccn2-c2ccccn2)CC1CCO", "note": "(stereo unspecified)", "activity change, negative = inhibition": "inactive: -14.8%"}
{"smiles": "CC1Cc2[nH]c(=S)[nH]c(=O)c2C(C)O1", "note": "(stereo unspecified)", "activity change, negative = inhibition": "inactive: 14.6%"}
{"smiles": "Cc1nn(-c2cc(N3CCCCC3)ccc2N)c(=O)c2ccccc12", "activity change, negative = inhibition": "inactive: 1.97%"}
{"smiles": "Nc1c2c(nc3ccccc13)CCCC2", "Potency": "inconclusive: 31.6 µM [inhibitor, partial curve]"}
{"smiles": "O=C(CNC(=O)c1ccccc1F)OCc1nc2ccc(Cl)cc2n1CCO", "Potency": "inconclusive: 29.9 µM [inhibitor, partial curve, poor fit]"}
{"smiles": "O=C(CN1CCC(c2nc3ccccc3s2)CC1)NCc1cccs1", "activity change, negative = inhibition": "inactive: -1.5%"}
{"smiles": "CC(C)C(=O)N1CCN(c2ccc(NC(=O)c3cccs3)cc2)CC1", "activity change, negative = inhibition": "inactive: 13%"}
{"smiles": "CCOC(=O)c1sc(NC(=O)CCN2CCN(CC)CC2)c(C(=O)OCC)c1C", "Potency": "inconclusive: 37.7 µM [inhibitor, single point]"}
{"smiles": "COc1cccc(OCc2cc(C(=O)N3CCC(c4ccncc4)CC3)no2)c1", "activity change, negative = inhibition": "inactive: -15%"}
{"smiles": "Cc1ccc(NC(=O)c2cc(S(=O)(=O)N3CCOCC3)c(Cl)cc2Cl)cc1", "Potency": "inconclusive: 15.8 µM [inhibitor, partial curve]"}
{"smiles": "CN1CCN(CC(=O)N2c3ccccc3C(C)(c3ccccc3)CC2(C)C)CC1", "note": "(stereo unspecified)", "Potency": "inconclusive: 12.6 µM [inhibitor, partial curve]"}
{"smiles": "COc1ccc(NC(=O)N(C)[C@H]2C[C@H]3c4[nH]c5ccc(-c6ccc(OC)cc6)cc5c4CCN3C[C@H]2[C@H](C)O)cc1", "Potency": "active: 22.4 µM"}
{"smiles": "CC(C)c1ccc(NS(=O)(=O)c2ccc3nc(-c4ccccc4)[nH]c3c2)cc1", "Potency": "inconclusive: 39.8 µM [inhibitor, single point]"}
{"smiles": "CCN1C[C@@H]2[C@@H]3C(=O)N(Cc4ccccc4)C(=O)[C@@H]3[C@](Cc3ccccc3)(C1=O)N2C(=O)c1ccc(Cl)c(Cl)c1", "Potency": "inconclusive: 39.8 µM [inhibitor, single point]"}
{"smiles": "FC(F)(F)c1cccc(Sc2nc(-c3ccccc3)nnc2C(F)(F)F)c1", "Potency": "inconclusive: 28.2 µM [inhibitor, single point]"}
{"smiles": "CC(=O)Nc1ccc(N(CC(O)Cn2c3ccccc3c3ccccc32)S(=O)(=O)c2ccc(C)cc2)cc1", "note": "(stereo unspecified)", "Potency": "inconclusive: 33.6 µM [inhibitor, single point]"}
{"smiles": "CCOc1cc(Br)cc(/C=N/NC(=O)c2cccnc2)c1O", "Potency": "inconclusive: 39.8 µM [inhibitor, single point]"}
{"smiles": "CCN1CCN(CCCNC(=O)c2ccc(/C=C3/Sc4ccccc4N(Cc4ccccc4F)C3=O)cc2)CC1", "Potency": "inconclusive: 22.4 µM [inhibitor, partial curve, poor fit]"}
{"smiles": "CCCn1c(NCc2cccc(OC)c2O)nc2ccccc21", "activity change, negative = inhibition": "inactive: 45.5%"}
{"smiles": "COc1ccc2cc3cc(C(=O)NCc4ccccc4OC)oc3nc2c1", "activity change, negative = inhibition": "inactive: -7.51%"}
{"smiles": "COC(=O)CC(N)c1ccc(Br)cc1", "note": "(stereo unspecified)", "activity change, negative = inhibition": "inactive: -7.93%"}
{"smiles": "Cc1ccc(C(=O)COC(=O)CN2C(=O)C3C4CCC(C4)C3C2=O)cc1[N+](=O)[O-]", "note": "(stereo unspecified)", "activity change, negative = inhibition": "inactive: 9.39%"}
{"smiles": "Cc1nc2ccccc2c2oc(C(=O)NCCN3CCCCC3C)cc12", "note": "(stereo unspecified)", "Potency": "inconclusive: 26.7 µM [inhibitor, single point]"}
{"smiles": "CCNC(=S)N=Nc1c(O)[nH]c2ccc(C(C)C)cc12", "activity change, negative = inhibition": "inactive: -1.53%"}
{"smiles": "CCN(CC)CCCNC(=S)N1CCN(c2nc(-c3ccc(F)cc3)cs2)CC1", "Potency": "inconclusive: 12.6 µM [inhibitor, partial curve, poor fit]"}
{"smiles": "CC1(C(=O)Nc2cnc3ccccc3c2)CCN1C(=O)c1ccccc1CCc1ccccc1", "note": "(stereo unspecified)", "Potency": "active: 20 µM"}
{"smiles": "Cn1nc(-c2ccc(Cl)cc2)c2cc(C(=O)NCc3ccco3)sc21", "Potency": "inconclusive: 35.5 µM [inhibitor, partial curve, poor fit]"}
{"smiles": "O=C(Cn1c(O)c(/C=C2\\C=Nc3ccccc32)sc1=O)Nc1ccc2c(c1)OCO2", "Potency": "inconclusive: 3.55 µM [inhibitor, full curve, poor fit]"}
{"smiles": "CCC(C)Sc1ccc(-c2nc3ccc(C)cn3c2NCc2ccccc2)cc1OC", "note": "(stereo unspecified)", "Potency": "inconclusive: 31.6 µM [inhibitor, single point]"}
{"smiles": "CC(=O)c1ccc(N2CCN(C(=O)CCCCn3c(=O)[nH]c4ccsc4c3=O)CC2)cc1", "activity change, negative = inhibition": "inactive: -1.75%"}
{"smiles": "OC(COCc1ccc(Cl)cc1)CN1CCN(CC(O)COCc2ccc(Cl)cc2)CC1", "note": "(stereo unspecified)", "Potency": "inconclusive: 11.2 µM [inhibitor, partial curve, poor fit]"}
{"smiles": "COc1ccc(S(=O)(=O)CCc2nnc(NC(=O)c3ccc(F)cc3)s2)cc1", "Potency": "inconclusive: 39.8 µM [inhibitor, single point]"}
{"smiles": "O=C(NCc1cccnc1)c1nc(-c2ccc(C(F)(F)F)cc2)no1", "activity change, negative = inhibition": "inactive: -7.53%"}
{"smiles": "COc1cccc(N2CCN(C(=O)c3ccc(CS(=O)Cc4ccccc4Cl)o3)CC2)c1", "note": "(stereo unspecified)", "activity change, negative = inhibition": "inactive: -17.1%"}
{"smiles": "Cc1nn(CC(=O)NCCCN2CCC(N3CCCCC3)CC2)c(=O)c2cc(-c3ccccc3)nn12", "Potency": "inconclusive: 12.6 µM [inhibitor, partial curve, poor fit]"}
{"smiles": "COc1cccc(CC(=O)Nc2cc(S(=O)(=O)N3CCOCC3)ccc2N2CCN(C)CC2)c1", "Potency": "inconclusive: 37.7 µM [inhibitor, single point]"}
{"smiles": "COc1cc(F)c(F)c(Nc2ccc(I)cc2F)c1NS(=O)(=O)C1(C[C@H](O)CO)CC1", "activity change, negative = inhibition": "inactive: -6.31%"}
{"smiles": "CC(C)C(=O)Nc1nnc(CSCc2ccccc2F)s1", "activity change, negative = inhibition": "inactive: 6.55%"}
{"smiles": "COc1cc(-c2nnc(-c3ccncc3)o2)ccc1OCc1ccccc1", "activity change, negative = inhibition": "inactive: 0.38%"}
{"smiles": "CCN1CCN(Cc2ccc(NC(=O)c3ccc(C)c(NC(=O)c4cc(-c5ccc(Br)cc5)n[nH]4)c3)cc2C(F)(F)F)CC1", "Potency": "active: 31.6 µM"}
{"smiles": "Cc1ccc(Cn2c(Sc3ncccn3)nc3c2c(=O)[nH]c(=O)n3C)cc1", "Potency": "inconclusive: 25.1 µM [inhibitor, single point]"}
